We go through 24 molecules from publication PMC4336329 (PLoS ONE, 2015).

The structures appear in SMILES notation. About 14,000 (4.5%) of roughly 310,000 compounds showed an effect of 50% or more. The effect is printed as a negative number. The list shows a part of the results.
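Note: peak tail current of the secondary pulse compared with the same well before compound.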

Sequence of human ether-à-go-go-related gene (hERG) potassium channel (Q12809 whole entry, looked up): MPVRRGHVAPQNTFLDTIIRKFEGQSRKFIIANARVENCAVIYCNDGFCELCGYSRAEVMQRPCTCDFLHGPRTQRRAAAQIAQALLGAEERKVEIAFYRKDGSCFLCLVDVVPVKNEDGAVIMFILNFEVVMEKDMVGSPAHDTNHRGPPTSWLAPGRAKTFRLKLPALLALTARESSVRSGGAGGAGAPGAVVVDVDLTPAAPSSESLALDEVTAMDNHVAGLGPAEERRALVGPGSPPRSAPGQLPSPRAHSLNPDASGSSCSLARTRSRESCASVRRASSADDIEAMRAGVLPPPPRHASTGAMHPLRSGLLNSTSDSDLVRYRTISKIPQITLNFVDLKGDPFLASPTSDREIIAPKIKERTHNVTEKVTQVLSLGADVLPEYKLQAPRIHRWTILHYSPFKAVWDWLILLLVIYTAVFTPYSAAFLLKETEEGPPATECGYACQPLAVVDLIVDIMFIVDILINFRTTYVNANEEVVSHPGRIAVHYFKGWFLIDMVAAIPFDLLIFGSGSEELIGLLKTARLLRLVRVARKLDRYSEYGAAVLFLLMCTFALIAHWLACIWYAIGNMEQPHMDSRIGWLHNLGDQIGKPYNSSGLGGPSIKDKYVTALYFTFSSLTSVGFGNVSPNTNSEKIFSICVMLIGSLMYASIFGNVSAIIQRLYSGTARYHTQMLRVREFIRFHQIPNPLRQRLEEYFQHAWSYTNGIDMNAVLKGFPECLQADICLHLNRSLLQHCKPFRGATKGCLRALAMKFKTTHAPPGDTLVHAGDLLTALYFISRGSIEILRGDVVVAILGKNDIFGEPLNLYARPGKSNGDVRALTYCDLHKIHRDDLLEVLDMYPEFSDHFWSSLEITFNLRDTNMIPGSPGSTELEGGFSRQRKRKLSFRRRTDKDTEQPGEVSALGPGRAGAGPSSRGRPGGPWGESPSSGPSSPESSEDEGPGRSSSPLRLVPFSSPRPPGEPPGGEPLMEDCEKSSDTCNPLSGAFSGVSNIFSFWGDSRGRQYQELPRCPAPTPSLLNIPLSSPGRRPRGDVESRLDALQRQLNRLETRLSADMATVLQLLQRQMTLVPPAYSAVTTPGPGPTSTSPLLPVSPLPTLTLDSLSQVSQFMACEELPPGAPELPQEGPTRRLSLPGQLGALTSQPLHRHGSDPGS

The test addresses human ether-à-go-go-related gene (hERG) potassium channel (human, UniProt Q12809). Put plainly: primary screen, population patch clamp on CHO cells stably expressing hERG.
`C/C(=N\NC(N)=S)C1C2C3CC4C5CC(C42)C1C53` (stereo not drawn): the “hERG current change (%, negative = inhibition) at 10uM” value is -10%. Take `O=C(Nc1nnc(CCN2CCOCC2)s1)c1ccccc1`: the “hERG current change (%, negative = inhibition) at 10uM” value was found to be 9.44%. Under `Cn1c(CNC(=O)c2ccco2)nnc1SCC(=O)c1ccccc1` stands 10.6%; under `Cn1cnnc1Sc1ccc(C(=O)OCC(=O)Nc2ccccc2)cc1[N+](=O)[O-]`, 2.15%. To `CCOC(=O)c1cc(-c2cccc([N+](=O)[O-])c2)n[nH]1` belongs -9.26%; to `Cc1ccccc1NS(=O)(=O)c1ccc2[nH]cc(C(=O)N(C)Cc3ccco3)c(=O)c2c1`, 7.11%. Take `CN(c1cccc(NC(=O)c2ccc(CN3CCc4ccccc4C3)cc2)c1)S(C)(=O)=O`: the “hERG current change (%, negative = inhibition) at 10uM” value is -7.26%. To `COc1ccc([C@H]2[C@@H]3C=CCC[C@@]3(C)C(=O)N2Cc2ccccc2)cc1Cl` belongs 5.39%; to `Cc1ccc(OCC(=O)N2CCN(S(=O)(=O)c3ccc4c(c3)OCCO4)CC2)c(C)c1`, -5.79%; to `Fc1ccccc1/C=N/Nc1nc2ccccc2o1`, 24.7%. Under `CCCC1CCc2c(sc(NC(=O)c3cccs3)c2C(N)=O)C1` (stereo not drawn) stands -3.94%. In the case of `CC(=O)c1cccc(NC(=O)c2cccc(NC(=O)c3ccco3)c2)c1`, the “hERG current change (%, negative = inhibition) at 10uM” value stood at 11.6%. Under `COC(=O)C1N[C@@H]([C@@H](NC(=O)COc2ccccc2)C(=O)NCc2ccccc2)SC1(C)C` (stereo partly drawn) stands -24.6%; under `Cn1c(=O)[nH]c(NC2CCCCC2)c([N+](=O)[O-])c1=O`, 1.43%. To `O=C(Cc1ccc(Br)cc1)N1CCN(c2ccccc2O)CC1` belongs -4.91%; to `CCOc1ccc(CCNC(=O)CN2CCN(Cc3ccccc3F)C2=O)cc1OCC`, -6.85%.

As for `CC(c1ccccc1)N1C(=O)c2ccc(C(=O)Nc3ccc(Br)cc3C(=O)O)cc2C1=O` (stereo not drawn), the “hERG current change (%, negative = inhibition) at 10uM” value turned out to be 10.5%.

Consider `CCOC(=O)c1c(NC(=O)OC)sc2c1CCC2`, for which the “hERG current change (%, negative = inhibition) at 10uM” value was -4.95%. In the case of `COc1ccc(NC(=O)CCS(=O)(=O)c2ccc3nc(C)sc3c2)cc1OC`, the “hERG current change (%, negative = inhibition) at 10uM” value is recorded as -3.15%. Under `O=C(c1ccccc1)c1ccc(OCC(O)CN2CCCC2)cc1` (stereo not drawn) stands -45.3%; under `COc1ccc(NCc2n[nH]nc2-c2ccccc2)cc1Cl`, 4%; under `CCn1c(SCC(=O)N2CCC(C)CC2)nnc1-c1ccc(S(=O)(=O)N2CCN(C)CC2)cc1`, -5.56%.

For the molecule `CCCC(=O)c1cc2cc(Cl)ccc2oc1=O`, the “hERG current change (%, negative = inhibition) at 10uM” value is recorded as 8.39%. Consider `O=C(CN1CCN(Cc2ccccc2Cl)CC1)N/N=C/c1ccco1`, for which the “hERG current change (%, negative = inhibition) at 10uM” value is on record as -21.8%.
